In PubChem BioAssay AID493208 (National Center for Advancing Translational Sciences (NCATS), 2011):
Out of some 44,000 compounds screened, about 340 (0.77%) were called active. Inconclusive results (about 5%) are left out. Calls follow the shape of the dose curve; as a rule, active = well fitted inhibition curve with a large enough effect; inconclusive = small, poorly fitted or top-dose-only effect; inactive = flat fitted curve, though single readings scatter. The list shows a part of the results.

Test: Acumen qHTS Assay for Inhibitors of the mTORC1 Signaling Pathway in MEF (Tsc2-/-, p53-/-) Cells: Sytravon; also: nearly all actives have a fitted effect of over 50% in size;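 as to activity change, negative = inhibition: plate controls were DMSO for no effect and rapamycin for full effect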
Details: phospho-rpS6 immunofluorescence/PI, 24 h; series mostly up to 38.3 µM; activity change, negative = inhibition: at the top concentration
Procedure, shortened: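 Plate MEFs (Tsc2-/-, p53-/-, empty vector) in DMEM/10% FBS; after 24 h add compound, incubate 24 h at 37 degree Celsius; fix in PFA/TX-100, block, stain phospho-rpS6 and 10 uM PI; scan at 488 nm; report % positive cells.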
Potency is read from the fitted curve at half-maximal effect.

Structure (SMILES)	activity change, negative = inhibition	Potency
O=C(NCc1ccc(Cl)cc1)c1cc2c(s1)-c1ccccc1SC2	inactive: -0.955%	–
COc1ccc(-c2nc3c(c(SCC(=O)Nc4cccc(O)c4)n2)Cc2c(CO)cnc(C)c2O3)cc1	inactive: -0.482%	–
CC1CCc2onc(C(=O)N3CCN(c4ccccc4)CC3)c2C1 (configuration not stated)	inactive: -3.96%	–
O=C(COc1ccccc1F)Nc1ccccc1C(=O)OCc1cc(=O)n2nc(C3CC3)sc2n1	inactive: 0%	–
COc1cc(OC)cc(C(=O)Nc2cc3c(cc2N2CCCCC2)n(C)c(=O)n3C)c1	inactive: 1.62%	–
CCc1ccccc1NC(=O)Cn1c(=O)n(Cc2ccco2)c(=O)c2ccccc21	inactive: -1.07%	–
COc1ccc(-c2c(C#N)c(SCC(=O)Nc3cccc(Cl)c3)nc(C)c2C(=O)Nc2ccccc2)cc1OC	inactive: 6%	–
Cc1ccc(N2C(=O)CC(c3ccccc3F)C3=C2COC3=O)cc1Cl (configuration not stated)	inactive: -20.6%	–
CCc1ccc(NC(=O)C2CCN(c3nn4cc(-c5ccc(OC)cc5)nc4s3)CC2)cc1	inactive: -4.7%	–
COc1ccc(CNC(=O)c2cnc3sc(N4CCC(C)CC4)nn3c2=O)c(OC)c1	inactive: 0%	–
Cc1cccc(S(=O)(=O)Nc2cccc(-c3ccc(N4CCCCC4)nn3)c2)c1	inactive: -4.51%	–
CCN(CC)C(=O)Cn1c(=O)n(-c2ccc(Cl)c(Cl)c2)c(=O)c2c(C)c(C(=O)N(CC)CC)sc21	inactive: -3.24%	–
CCc1nnc2c(N3CCN(c4cccc(C)c4)C(C)C3)nc3ccccc3n12 (configuration not stated)	inactive: -0.235%	–
CCc1ccc(NC(=O)CCn2c(-c3ccc(OC)cc3)cc(C(C)=O)c2C)cc1	inactive: -10.3%	–
COc1cccc(Cc2nc3ccccc3nc2SCC(=O)NCCc2ccccc2)c1	inactive: 9.24%	–
COc1ccc(NC(=O)c2ccc3c(c2)N(Cc2cccc(Cl)c2)C(=O)c2ccccc2S3=O)cc1Cl (configuration not stated)	inactive: -3.78%	–
CC1CCN(c2nc3c(S(=O)(=O)c4ccccc4)nnn3c3ccc(Cl)cc23)CC1	inactive: -1.57%	–
COc1ccc(C2C=C(c3ccc(F)cc3)Nc3nc(-c4ccc(Cl)cc4)nn32)cc1 (configuration not stated)	inactive: -13.3%	–
Cc1c(C)n(Cc2ccccc2)c2ccc(C(=O)NCc3ccccc3F)cc12	inactive: -2.9%	–
COc1ccccc1NC(=O)NCCCN1CCN(c2ccc(F)cc2)CC1	inactive: -26.2%	–
O=C(c1cnn(-c2cccc(F)c2)c1-n1cccc1)N1CCN(c2ccccc2F)CC1	inactive: 6.94%	–
Cc1ccc(-c2nc3ccccc3[nH]2)cc1NC(=O)COc1ccccc1[N+](=O)[O-]	–	active: 2330 nM
CC(=O)c1cccc(NC(=O)CN2C(=O)c3ccccc3Sc3ncccc32)c1	inactive: -3.11%	–
CCCN1CCN(CCCNC(=O)c2ccc3c(c2)sc2nc(-c4ccc(OC)cc4)cn23)CC1	inactive: 10.1%	–
Cc1ccc2c(CNCC(C)c3ccccc3)c(C(=O)O)n(Cc3ccccc3C)c2c1 (configuration not stated)	inactive: -10.5%	–

Structure (SMILES)	activity change, negative = inhibition	Potency
CC1=C(C(=O)NCc2ccccc2Cl)C2(CCCCCC2)OC1=O	inactive: -0.617%	–
CCOC(=O)C1CCN(C(=O)Cn2nc(C)n3c(cc4sccc43)c2=O)CC1	inactive: -6.74%	–
Cc1ccccc1Cn1c(CN2CCC(C(=O)NCc3cccnc3)CC2)cc2ccccc21	inactive: -8.35%	–
Cn1c(SCC(=O)N2CCOCC2)ncc(C(=O)Nc2ccccc2)c1=O	inactive: 3.23%	–
Cc1ccc(CNC(=O)CSc2ncc(S(=O)(=O)c3ccc(Br)cc3)c(=O)[nH]2)cc1	inactive: -1.04%	–
Nc1c(C(=O)Nc2ccccc2Cl)c2ccccn2c1C(=O)c1ccc(Cl)cc1	inactive: -7.76%	–
COc1ccc(NC(=O)CSc2nc3c([nH]c4ccccc43)c(=O)n2C)cc1	inactive: -13.9%	–
CCc1nn(CC(=O)NCCC(C)C)c(=O)c2cc3occc3n12	inactive: -1.86%	–
CCn1c(C)c(C2N3CC4(C)CN2CC(CC)(C3)C4=O)c2ccccc21 (configuration not stated)	inactive: 2.2%	–
COc1ccc(NS(=O)(=O)c2ccc3c(c2)C(C(C)C)C(=O)N3)cc1 (configuration not stated)	inactive: 2.87%	–
Cc1ccc(CNC(=O)C(=O)NCC(c2cccs2)S(=O)(=O)c2ccc(C)cc2)cc1 (configuration not stated)	inactive: -3.01%	–
COC(=O)c1sccc1S(=O)(=O)N(CC(=O)NCc1ccccc1)c1ccccc1	inactive: -11.3%	–
Cc1c(C(=O)N2CCC(C)CC2)c(S(=O)(=O)NCc2ccccc2)c(C)n1C	inactive: 0%	–
Cc1nn(C(=O)c2ccccc2F)c(C)c1S(=O)(=O)N1CCOCC1	inactive: -1.61%	–
COc1ccc(Nc2ncnc3c2cnn3-c2ccc(C)cc2C)cc1	inactive: -0.524%	–
COc1cccc(CC(=O)Nc2ccc3nc(N4CCC(C)CC4)cc(C)c3c2)c1	inactive: 11.9%	–
CCOc1ccccc1NS(=O)(=O)c1c(C)nc2sccn2c1=O	inactive: 3.94%	–
Cc1ccc(C(=O)Nc2ccc(Br)cc2)cc1S(=O)(=O)N1CCOCC1	inactive: -5.12%	–
CC(=O)c1cccc(NC(=O)Cn2c(=O)c(CNc3ccc(C)cc3)cc3cc4c(cc32)OCCO4)c1	inactive: -0.224%	–
CCn1c(=O)c2cc(C(=O)N(CCCOC(C)C)Cc3ccco3)sc2c2ccccc21	inactive: -9.37%	–
Cc1ccc(-c2sc(C(=O)Nc3ccc(Br)cc3)cc2CC(=O)O)cc1	inactive: -1.22%	–
Cc1cc(C)c(NC(=O)Cn2c(SCC(=O)NCc3ccccc3)nc3ccccc32)c(C)c1	inactive: 24.2%	–
COc1cccc(CNC(=O)C2CCN(S(=O)(=O)c3ccc4c(ccn4C)c3)CC2)c1	inactive: 0.037%	–
COc1ccc(-c2cn3cccnc3n2)cc1NC(=O)c1c(F)cccc1F	inactive: -16.7%	–
CSc1ccc(C2c3[nH]c4ccccc4c3CCN2C(=O)CCc2ccccc2)cc1 (configuration not stated)	inactive: 0.465%	–

Structure (SMILES)	activity change, negative = inhibition	Potency
COc1cc(Cl)c(C)cc1NC(=O)CCn1c(=O)c2cccn2c2cccnc21	inactive: 3.88%	–
Cc1ccc(-n2nc3c(=O)n(CCCC(=O)NCCc4ccccc4)nc(C)c3c2C)cc1	inactive: 1.88%	–
CC(C)c1nc2ccc(C(=O)NCc3ccc(N(C)C)cc3)cc2o1	inactive: -17.6%	–
COc1ccc(C)cc1Nc1nc2ccccc2c2nnc(C)n12	inactive: 2.1%	–
Cc1cccc(CCNC(=O)CCS(=O)(=O)c2cc3c(cc2Cl)NC(=O)CO3)c1	inactive: 0%	–
CCN1CCN(C(c2cccc(F)c2)c2c(O)cc(C)n(CCOC)c2=O)CC1 (configuration not stated)	inactive: 0.877%	–
COc1ccc(Cl)cc1NC(=O)c1cc(S(=O)(=O)N2CCC(C)CC2)cn1C	inactive: -3.58%	–
CCc1nc2cccnc2n1-c1ccc(CC(=O)Nc2ccccc2Cl)cc1	inactive: 1.02%	–
Cc1cccc(NC(=O)CSc2nc3c(oc4ccccc43)c(=O)n2Cc2ccco2)c1	inactive: 3.11%	–
CC(C)C(=O)Nc1ccc2nc(SCC(=O)N3CCOCC3)sc2c1	inactive: -5.67%	–
Cc1cc(NS(=O)(=O)c2ccc3nc(-c4ccccc4)[nH]c3c2)ccc1Br	inactive: 2.62%	–
CCOC(=O)c1c(N)n(-c2ccccc2CC)c2nc3ccccc3nc12	inactive: -0.281%	–
COc1ccccc1-c1noc(CSc2nnc(Cc3ccccc3)n2-c2ccc(C)c(C)c2)n1	inactive: -1.97%	–
Cc1ccc(C)n1-c1nnc(N2CCC(C(=O)NCc3ccc(F)cc3)CC2)s1	inactive: 0.859%	–
Cc1ccc(N2CC(c3nnc(NC(=O)c4ccco4)s3)CC2=O)cc1Cl (configuration not stated)	inactive: 0.706%	–
O=S(=O)(c1ccc(Br)cc1)c1nnn2c1nc(NC1CCCCCC1)c1sccc12	inactive: -3.04%	–
CCC(=O)Nc1sc2c(c1C(=O)Nc1ccccc1C)CCC(C)C2 (configuration not stated)	inactive: -4.65%	–
Cn1c(=O)c2sccc2n2c(CCC(=O)N3CCN(c4ccccc4)CC3)nnc12	inactive: 1.11%	–
Cc1ccc(-n2nc3ccc(NC(=O)c4cc5ccccc5o4)cc3n2)cc1	inactive: -5.2%	–
CCC(Cc1ccccc1)NC(=O)c1oc(=O)c2ccccc2c1-c1ccccc1 (configuration not stated)	inactive: -0.94%	–
COC(=O)c1ccccc1NC(=O)c1noc2c1CSc1ccccc1-2	inactive: -3.3%	–
COc1ccc2nc(NC(=O)c3ccc(S(=O)(=O)N4CCC(C)CC4)cc3)sc2c1	inactive: 2.89%	–
CCOC(=O)c1cccc(NC(=O)NCCc2c(C)nn(C)c2C)c1	inactive: 0%	–
Cc1cccc(C)c1OCCCCn1c(C2CC(=O)N(c3ccc(F)cc3)C2)nc2ccccc21 (configuration not stated)	inactive: -8.74%	–
CCc1ccc(NC(=O)N2CCN(Cc3cc(=O)n4nc(-c5ccccc5OC)sc4n3)CC2)cc1	inactive: -11%	–

Structure (SMILES)	activity change, negative = inhibition	Potency
COC(=O)c1cc2occc2n1CC(=O)Nc1cccc(SC)c1	inactive: -10.2%	–
COc1ccc(-c2cc(C(=O)Nc3cc(C)ccc3O)no2)cc1OC	inactive: -9.42%	–
CCn1c(=N)c(C(=O)NCc2cccnc2)cc2c(=O)n3cc(C)ccc3nc21	inactive: -10.8%	–
O=S(=O)(NCC(c1ccco1)N1CCN(c2ccc(F)cc2)CC1)c1ccccc1 (configuration not stated)	inactive: -10.1%	–
COc1ccc(-c2nc(CSCC(=O)NCCc3ccc(C)cc3)c(C)o2)cc1OC	inactive: -1.29%	–
CCCCN(Cc1ccccc1)S(=O)(=O)c1ccc2c(c1)CC(C)N2C(=O)CC (configuration not stated)	inactive: -9.43%	–
COc1ccccc1Cc1nc2ccccc2nc1SCC(=O)NCCc1ccccc1	inactive: -8.9%	–
CCN(CC)CCCNC(=O)c1c(C)oc2ncnc(N3CCOCC3)c12	inactive: -1.64%	–
CCOC(=O)Cn1cc2c(c1-c1ccc(Cl)cc1)c(=O)n(C)c(=O)n2C	inactive: 3.43%	–
CCc1noc2nc(C)n(CC(=O)O)c(=O)c12	inactive: 5.11%	–
CN(C(=O)CSc1nc2ccccc2n1CC(=O)NCc1ccc(F)cc1)c1ccc(F)cc1	inactive: 0%	–
CCS(=O)(=O)c1ccccc1C(=O)N(Cc1cccnc1)c1nc2cc(C)c(C)cc2s1	inactive: -3.25%	–
CCOc1ccc(CNC(=O)c2ccc(NC(=O)c3nsc4ccccc34)cc2)cc1	inactive: -6.87%	–
Cc1cccc(-n2c(=O)c3c(c4cc(C)ccc4n3C)n(CC(=O)Nc3ccccc3C(F)(F)F)c2=O)c1	inactive: -10.5%	–
c1ccc(C(c2cccs2)c2c[nH]c3ccccc23)cc1 (configuration not stated)	inactive: 8.39%	–
Cc1ccc(-c2noc(CN(C3CCCCC3)S(=O)(=O)c3ccc(Cl)cc3)n2)cc1	inactive: 3.42%	–
COc1ccc(-c2nc3n(n2)C(c2ccccc2F)C(C(=O)Nc2cccnc2)=C(C)N3)cc1OC (configuration not stated)	inactive: -18%	–
Cc1ccc(CNc2ncnc3c2c(-c2ccccc2)cn3-c2cccc(Cl)c2)cc1	inactive: 12.8%	–
CCCCN(C(=O)c1cccc(S(=O)(=O)N2CCCCC2)c1)C1CCS(=O)(=O)C1 (configuration not stated)	inactive: -16.7%	–
COCCCNC(=O)c1sc2ncccc2c1-n1cccc1	inactive: 2.42%	–
O=C(Nc1ccc(F)c(Cl)c1)N1CCN2CCCCC2C1 (configuration not stated)	inactive: -2.68%	–
COc1ccc(NCc2ccccc2-c2nnc(-c3ccccc3)o2)cc1Cl	inactive: -1.77%	–
